Measured values reported in the supplement of paper PMC11417369.
This is one part of the list.

Test system: PfAP2-HC AP2 domain (GST-tagged)
Test: gcPBM binding intensity (ln(normalized median fluorescence intensity)); higher = stronger DNA binding
Procedure, shortened: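 Probes on an Agilent 4 × 180k array were primer-extended, double-stranded and 36 bp long, taken from intergenic genomic regions, with negative controls added. GST-tagged P. falciparum DNA-binding domains from E. coli, about 25 μg on average, were applied to the array for 1 h in 1× PBS containing 1% milk, 0.2 mg/ml BSA, 0.5% salmon testes DNA and 0.03% Triton X-100. Binding intensity, obtained after Alexa488 anti-GST antibody detection and a 488 nm scan, is the highest Masliner-normalised natural-log median intensity across replicate spots of either probe orientation.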

Row | Sequence | gcPBM binding intensity (ln)
1 | AAAATATTTTTATAATGTACATATAGTTGTATTTGT [XGTACX_site8724] | 9.65
2 | ATATATATTTAACAATGTACTTATTCAGAGAATAAT [XGTACX_site574] | 9.38
3 | AAGTTGAAATAATGTGCACACATTTTTTTTTTTTTT [CACACA_site3368] | 9.86
4 | CCCTTAATATAAAGCACACATATATATAATATATAT [CACACA_site4439] | 9.79
5 | TATCCTTATATTTGCACACACACACTAGAAAATGAA [CACACA_site4714] | 10.3
6 | AAAAAAAAAAAAAAAAAAAACGAAAAACATCAAAGA [TGCATGCA_negctrl_site78] | 9.51
7 | ACTAAAAAATATATATGTACATAATAATATATTATT [XGTACX_site1260] | 9.68
8 | ATTTATACTTATGTATGTACATATATACATATGTAT [XGTACX_site3979] | 9.87
9 | ATAATAAAATAACTAGTGCATATTCAAAGGATTCAG | 9.83
10 | ATTATGTGTCCACATGTAAGCTATCTTACTTATATA [CACACA_negctrl_site1227] | 9.76
11 | CATATTTGTGGACACACACACATATTTATATATATA [CACACA_site5887] | 10.4
12 | ATAGTTACACAATGGTGTACAAGTCAATATATTTCT [XGTACX_site4614] | 9.67
13 | TACAAAAAAATAAAAAAAATTAAATAAATAAATATA [CACACA_negctrl_site45] | 9.45
14 | ACAATGTCATTTGCTAGTACGCATATTGGTTGTAAA [XGTACX_site8924] | 9.56
15 | ATTTTTTTTTTTTTATGTACATATAGGTGCAAATCA [XGTACX_site6748] | 9.35
16 | TAAAAAAAAAAAAAAAGTACACACATACATATAAAT [XGTACX_site3752] | 9.97
17 | TATTTTTTTTTTTTTTTTTTTTTAAAACATATCAAT [CACACA_negctrl_site925] | 9.44
18 | ATATATATATATAATTGTACATATAATATAATATTA [XGTACX_site5216] | 9.55
19 | ATATATATTATATATAGTACTTTTTTGCGCAAATAT [XGTACX_site6849] | 9.49

Row | Sequence | gcPBM binding intensity (ln)
20 | AATATGTTATAAATATGTTATAAATAATAAATAAAT [GTGCAC_negctrl_site135] | 9.75
21 | AACACATGCTTGGTCACACACGTATGCATATTTAAA [CACACA_site5206] | 10
22 | ATATTTATATATATCATACACACTAATATGTATATT [CACACA_site3409] | 9.78
23 | TACCATATTTCTTCAAGTACGCATTATGTTAAAAAG [XGTACX_site345] | 9.42
24 | TACATATATTTTTATACATGCATAACTTAGGACTTT [TGCATGCA_site113] | 9.57
25 | TCCTTTTTGAAATGTTGTACTTTTTTTATCTTTCAT [XGTACX_site953] | 9.87
26 | TAATTATATATATACACACACATACAGACAAATAAA [CACACA_site3412] | 10.6
27 | GAAATTTGTTATTGCACACAAATTTTTCTTTTTTTA [CACACA_site2339] | 9.8
28 | GCAATTTTTTTTAAGAGTACTAATATATTATAGTGG [XGTACX_site7316] | 9.41
29 | TTTTTTTAATAGTGTGCACACAATATACAGAAAAAA [CACACA_site8399] | 10
30 | AAAAAGTGACTCCTTACACACTTTACATAATTTAGG [CACACA_site8176] | 9.66
31 | ATATACATATATATATGTACTTATTTATTTATTTAT [XGTACX_site2532] | 9.89
32 | ATATATATATATATATGTACATATGTTTGTTTCCGC [XGTACX_site5167] | 10.1
33 | CATAATTTAAAAAAGGTGCAAAATGGATAATATATA [GTGCAC_site9657] | 9.84
34 | CATACATACATACATACATGCATACATACATACATA [TGCATGCA_site218] | 9.86
35 | TTTTTTTTCATTTTATGTACACATAATTTAATATAT [XGTACX_site5768] | 9.9
36 | TAATTTCTTTAGGGGGTGCTTTTATAGTTTTTATTA | 10.1
37 | TTTATATTTATGATGGGTACACAAAATTTTACCCAT [XGTACX_site1504] | 9.35
38 | TTCATAAAATGTGTCTGTACGTAAATGTATTACACT [XGTACX_site3179] | 9.79

Row | Sequence | gcPBM binding intensity (ln)
39 | CTGTCTGCAGATATGGTGCATTTGTAAGATCTTACA [GTGCAC_site9870] | 9.56
40 | AAAAAAATTAAAAATTAAAATTAAAAATAATATATA [GTGCAC_negctrl_site466] | 9.52
41 | AATGTATAAATCCATACACACATAAATTTTAATAAT [CACACA_site2363] | 9.99
42 | TATATATATGAACAATGTACGTATAATATTTTTATT [XGTACX_site7561] | 9.7
43 | GATCTATACTATAATACACACATTTGATGAATGTAA [CACACA_site6163] | 9.71
44 | AACATTATATATTGCAGTACTCCCATATGTTGATAA [XGTACX_site3119] | 9.54
45 | ATATATATATATATATGTACACATAAAAAGAAAGAA [XGTACX_site1603] | 10.1
46 | TTTAGTTGTGAGAATTGTACATATTTTCCTTTTACC [XGTACX_site7291] | 9.58
47 | TATATACCTATATACACACACATATATTATAGATAT [CACACA_site6266] | 10.3
48 | ATTAAAAAAAATATATATGTATAAAACAAGCAAAAT [XGTACX_negctrl_site474] | 9.78
49 | TAGCCATTTTTATATTGTACTTATATAATCACATTT [XGTACX_site4407] | 9.74
50 | ATAAAAAAAAATAACACACAGACATAAGAATAAATA [CACACA_site4162] | 10.2
51 | ATATAAGAAAAGCACACACACACAAAAAAAAAAAAA [CACACA_site2827] | 11.1
52 | GACCACTTTAGGATTTGTACACATATTATATATGCA [XGTACX_site6579] | 9.91
53 | ATTAAAAAAATTGGCACACATAAAAATATATAAAAA [CACACA_site2748] | 10.1
54 | GTTTTTAATGTTTTGACATGCAATATTAAAAATAAT [TGCATGCA_site174] | 9.31
55 | AACAGATATGAATAGAAAAAAAAAAATGGCCCATAT [TGCATGCA_negctrl_site443] | 9.51
56 | TGAAAAAAAAAATACACACACGAGTTGTTATACATA [CACACA_site7486] | 9.84
57 | TTTTGATAGAAGTGTTCTAGGAATTCAACTGTAATA [GTGCAC_negctrl_site585] | 9.36
